Reference: ChEMBL document CHEMBL1201862, “PubChem BioAssay data set” (2004)
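Step 1: Grow cells in 96-well plates. Step 2: Expose to compound for 48 hours at 5 concentrations. Step 3: Interpolate endpoints linearly; if unreached, use highest concentration. The concentration for 50% growth inhibition is given as GI50.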 Activity calls are given as the source filed them. No stated cut-off is given here; in the data, active = GI50 up to about 1.1 µM and inactive = higher.

Each molecule was assayed on NCI-H322M (assay: growth of human tumour cells (NCI), 48 h).
In the case of `COc1ccc(CNc2nc3cc(C(F)(F)F)ccc3nc2C(=O)O)cc1`, the GI50 is reported as inactive: 23.9 µM.
`COC(=O)CCC1(CCC(=O)OC)CCCCCCC(CCC(=O)OC)(CCC(=O)OC)C(=O)C1=O` was tested, and the GI50 was inactive: > 100 µM.
`O=C(Nc1ccc(Cl)c(C(F)(F)F)c1)C(=O)C(C(=O)/C=C/c1ccccc1)C1OC(=O)c2ccccc21` (stereo unspecified) was tested, and the GI50 was inactive: > 100 µM.
`CCOC(=O)/C(C(=O)c1ccccc1)=C1\N[C@H](C(=O)OCC)CS1` was tested, and the GI50 was inactive: > 100 µM.
In the case of `Oc1ccc(-c2nc(-c3cccnc3)c(-c3ccc(F)cc3)[nH]2)cc1`, the GI50 is reported as inactive: 21.5 µM.
`Cn1cnc([N+](=O)[O-])c1Sc1n[nH]c(-c2ccc(Cl)cc2)n1` was tested, and the GI50 was inactive: 19.9 µM.
In the case of `Cc1nn(C(=O)Cc2ccccc2)c2c1C(c1ccccc1O)SC(=N)N2` (stereo unspecified), the GI50 is reported as inactive: > 100 µM.
In the case of `Cc1ccc(S(=O)(=O)c2ccsc2NC(=O)C(F)(F)F)cc1`, the GI50 is reported as inactive: 37.9 µM.
For `CN(C)c1ccc(/C=N/NC2=N/C(=C\c3ccco3)C(=O)N2)cc1`, the GI50 was inactive: > 100 µM.
In the case of `O=C(O)C1=C(C(=O)O)Oc2ccccc2O1`, the GI50 is reported as inactive: > 100 µM.
In the case of `CC(C)=C1CCC(CN2CCCC2)C1=O` (stereo unspecified), the GI50 is reported as inactive: > 100 µM.
In the case of `CC(=O)N1N=C(c2ccccc2Nc2ccccc2C2=NN(C(C)=O)C(c3ccccc3)O2)OC1c1ccccc1` (stereo unspecified), the GI50 is reported as inactive: > 100 µM.
In the case of `N#CSC#Cc1ccc(C#CSC#N)cc1`, the GI50 is reported as inactive: 45 µM.
With `O=c1[nH]nc(Cc2ccc(Cl)cc2)n1/N=C/c1ccco1` the GI50 was inactive: > 100 µM.
In the case of `COc1ccc(/C=N/n2c(Cc3ccc(Cl)cc3)n[nH]c2=O)c(OC)c1`, the GI50 is reported as inactive: 40.4 µM.
With `Cn1cc2c(n1)c(N/N=C/c1ccccc1)nn1nnnc21` the GI50 was inactive: > 100 µM.
In the case of `O=C1C=CC2(O[C@H](c3ccccc3)[C@@H](c3ccccc3)O2)C(SC(=O)c2ccccc2)C1` (stereo partly specified), the GI50 is reported as inactive: 12 µM.
In the case of `CCCN(CCCCC(NC(C)=O)C(=O)NCc1ccccc1)C(=O)N(C)N=O` (stereo unspecified), the GI50 is reported as inactive: > 100 µM.
`CCCCCNC(=O)CCCCCCCCCCCNC(=O)CCCCCCCCCCN1C=CC(=CC=C2C=CC(=O)C=C2)C=C1` was tested, and the GI50 was inactive: > 100 µM.
For `O=C(OCC1CCCN2CCCCC12)c1ccncc1` (stereo unspecified), the GI50 was inactive: > 100 µM.
For `CC(C)Oc1cccc(N2C(CCc3c[nH]c4ccc(Br)cc34)=NS(=O)(=O)c3cnccc32)c1`, the GI50 was inactive: > 100 µM.
For `C/C(=C\[Si](C)(C)c1ccco1)C(C)(O)[C@H](C)O` (stereo partly specified), the GI50 was inactive: > 100 µM.
With `CCSc1nc(-c2ccc(OC)cc2)c(C#N)c(=O)n1C1OCC(OC(C)=O)C(OC(C)=O)C1OC(C)=O` (stereo unspecified) the GI50 was active: 0.253 µM.
With `COc1cc(C(=O)N(C(=S)OC23CC4CC(CC(C4)C2)C3)c2ccccc2)cc(OC)c1OC` the GI50 was inactive: 32.7 µM.
`CN1C2C=C(c3ccccc3)CC1CC2` (stereo unspecified) was tested, and the GI50 was inactive: > 100 µM.
With `O=C(/C(=C\c1ccc(Cl)cc1)c1ccccc1)c1ccccc1` the GI50 was inactive: > 100 µM.
`COc1ccc2c(NCCCCCCNc3c4ccccc4nc4cc(OC)ccc34)c3ccccc3nc2c1` was tested, and the GI50 was active: 0.0771 µM.
With `CC(=O)[C@@]1(O)CC[C@H]2[C@@H]3C[C@H](C)C4=CC(=O)CC[C@]4(C)[C@H]3[C@@H](O)C[C@@]21C` the GI50 was inactive: > 100 µM.
`CC(=O)O[C@H]1/C(=C/c2ccc(N(C)C)cc2)C[C@H]2[C@@H]3CC=C4C[C@@H](N5CCCC5)CC[C@]4(C)[C@H]3CC[C@]12C` was tested, and the GI50 was inactive: > 100 µM.
In the case of `CCCSCC(P(=O)(O)O)P(=O)(O)O.NC1CCCCC1`, the GI50 is reported as inactive: > 100 µM.
In the case of `CCOC(=O)c1c(NC(=S)NCc2ccccc2)sc2c1CCN(C)C2`, the GI50 is reported as inactive: > 100 µM.
With `Cc1nn(-c2ccccc2)c2c1C(c1cc3ccccc3nc1Cl)NC(=O)N2` (stereo unspecified) the GI50 was inactive: 32.7 µM.
For `CNN1C(=O)c2c(N)c(C#N)c(-c3ccccc3)c(-c3ccccc3)c2C1=O`, the GI50 was inactive: 63.5 µM.
In the case of `CC(C)(C)OC(=O)c1cnc(Cl)cn1`, the GI50 is reported as inactive: 29.9 µM.
`Nc1nc(CCc2n[nH]c(N)n2)n[nH]1` was tested, and the GI50 was inactive: > 100 µM.
For `Cc1ncc([N+](=O)[O-])n1CC(O)Cn1ccnc1[N+](=O)[O-]` (stereo unspecified), the GI50 was inactive: > 100 µM.
